# Measurements from PubChem BioAssay AID686978 (National Center for Advancing Translational Sciences (NCATS), 2013).
# Values joined by “and” are separate entries in the source; they are usually repeats but may differ in a detail not shown here. Identical values can stand only once. Hit rate of the full screen: of about 420,000 compounds, about 64,000 (15%) were called active. Inconclusive means that the source gave no clear call. Such entries were picked first, then a sample of the others. Calls come from the whole dose curve; as a rule, active = well fitted inhibition curve with a large enough effect; inconclusive = small, poorly fitted or top-dose-only effect; inactive = flat fitted curve, though single readings scatter. No potency is given beside an inconclusive call; the fits are too rough.
# Assay: qHTS for Inhibitors of human tyrosyl-DNA phosphodiesterase 1 (TDP1): qHTS in cells in absence of CPT; note: nearly all actives have a fitted effect of over 55% in size
# Settings: DT40 Tdp1-/- hTDP1 cells, no CPT, ATP luminescence, 48 h; activity change, negative = growth inhibition: at 46.2 µM (top of the series)
# How it was run: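 Cells were dispensed at 400 per well, compounds added by pin tool, plates incubated ≥48 hr at 37 °C, then CellTiter-Glo added for 30 min at room temperature before luminescence reading. Line: DT40 Tdp1-/- complemented with hTDP1; camptothecin omitted.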
# % is set by controls: 0 for no effect and ±100 for the full control effect; potency is the fitted concentration of half-maximal effect; tags give direction and shape of the fitted curve.
Structure (SMILES),Potency,"activity change, negative = growth inhibition"
CC1Cc2ccccc2N1C(=O)CSc1nnc(-c2cccc(Cl)c2)o1 (stereo unspecified),"inconclusive [inhibitor, full curve]",–
CCN(CC)CCSc1nnc2c3ccccc3n(CCc3ccccc3)c2n1,"inconclusive [inhibitor, single point]",–
CCOC(=O)[C@]12CCC=C1N(Cc1cccc3ccccc13)C(=O)[C@H](CC(=O)NCc1cccs1)C2,"inconclusive [inhibitor, single point]",–
Cc1ccc(S(=O)(=O)Oc2ccc(/C=C3/N=C(c4ccccc4)OC3=O)cc2)cc1,"inconclusive [inhibitor, single point]",–
Cn1cccc1/C=N/NC(=O)CSc1nc2ccccc2[nH]1,–,inactive: -13.2%
COc1cc(NC(=O)Cc2ccc(OC)c(S(=O)(=O)N3CCOCC3)c2)c(OC)cc1Cl,"inconclusive [inhibitor, partial curve]",–
CCc1ccc(C2C(C(C)=O)=C(C(=O)OC)Nc3nnnn32)cc1 (stereo unspecified),–,inactive: 2.05%
Nc1ccn([C@@H]2O[C@H](C(=O)N(CCC3=CCCCC3)CC3CC3)[C@@H](O)[C@H]2O)c(=O)n1,–,inactive: -22%
COc1cc(OC)c(OC)cc1/C=N/NC(=O)CCc1c(C)n[nH]c1C,"inconclusive [inhibitor, partial curve]",–
CC(=NO)C1CCC2C3CCC4CC(=NO)CCC4(C)C3C(C)(O)CC12C (stereo unspecified),active: 14.6 µM,–
COCCn1c(=O)c(-c2cn(C)c3ccccc23)nc2cnc(Oc3ccc(OC)cc3)nc21,–,inactive: -9.39%
O=C(CCc1ccccc1)NCc1ccc2c(c1)CCN2C(=O)c1ccc(Cl)cc1,–,inactive: -3.85%
O=C(c1ccc(CNc2c(N3CCCC3)c(=O)c2=O)cc1)N1CC=C(c2ccccc2)CC1,"inconclusive [inhibitor, single point]",–
CCOc1ccc(CCNC(=O)c2cc3c(=O)n(C)c4ccccc4c3n2C)cc1,active: 14.6 µM,–
CC(C)CC(NC(=O)C1CCC(C)CC1)C(=O)Nc1ccc2c(c1)OCCO2 (stereo unspecified),–,inactive: -22.9%
Clc1ccc(OCc2nc(-c3ccncc3)no2)cc1,"inconclusive [inhibitor, single point]",–
CC(C)C(CCN1C(=O)CCC1=O)C1CCOC(C)(C)C1 (stereo unspecified),–,inconclusive: -35.1% [inhibitor]
Clc1cccc2sc(N3CCN(c4ccccc4)CC3)nc12,active: 20.6 µM,–
CC1CCCCN1C(=O)CSc1nc2ccccc2n1CC(=O)N1CCc2ccccc21 (stereo unspecified),"inconclusive [inhibitor, single point]",–
OC1(c2ccc(Br)cc2)CCN(Cc2cccc(Br)c2)CC1,"inconclusive [inhibitor, single point]",–
O=C(N/N=C/c1cccc(OC(=O)c2cccc(Br)c2)c1)c1cccnc1,–,inactive: -2.56%
Cc1cccc(NC(=O)CSCC(=O)N(C)CCOc2ccc(Cl)cc2)c1,"inconclusive [inhibitor, single point]",–

Structure (SMILES),Potency,"activity change, negative = growth inhibition"
CN1C(=S)SC(N(O)C(=O)Nc2cccc3ccccc23)C1(C)C (stereo unspecified),"inconclusive [inhibitor, single point]",–
COC(=O)Cn1c(=NC(=O)C2CC2)sc2c(C)cc(C)cc21,"inconclusive [inhibitor, single point]",–
C=CCn1c(=O)c2ccccc2n2c(SCC(=O)NC)nnc12,–,inactive: 0.495%
O=C1c2ccccc2C(=O)N1CCCCN(C(=O)c1ccc([N+](=O)[O-])cc1)c1ccc(Cl)cc1,"inconclusive [inhibitor, single point]",–
Cc1ccc(N2CC(NS(=O)(=O)c3cccs3)CC2=O)cc1 (stereo unspecified),"inconclusive [inhibitor, single point]",–
Cc1ccc(NC(=O)CC2Sc3ccccc3NC2=O)c(Br)c1 (stereo unspecified),"inconclusive [inhibitor, partial curve, poor fit]",–
N#Cc1c(N)n(-c2ccccc2N)c2nc3ccccc3nc12,"inconclusive [inhibitor, full curve, poor fit]",–
C=C(C)CN(CC)C(=O)CSc1nc2ncc(Cl)cc2[nH]1,"inconclusive [inhibitor, partial curve]",–
O=C(NCCS(=O)(=O)N1CCN(c2cccc(Cl)c2)CC1)c1cc(=O)c2ccccc2o1,active: 18.4 µM and active: 2.06 µM,–
Cc1ccc(S(=O)(=O)NCC(=O)Nc2ccc(C(F)(F)F)cc2)cc1,"inconclusive [inhibitor, partial curve]",–
COCCN1C[C@@H](CO)O[C@@H](n2cnc3c(NC4CCCC4)ncnc32)C1,–,inactive: -7.84%
O=C(COC(=O)/C=C/c1cccs1)Nc1nc(-c2cccc(Br)c2)cs1,–,inactive: -23.4%
COC(=O)c1cccc(C23CC4(C2)[C@H](CN(C)[C@@H]4c2ccccc2)C3c2ccc(C(F)(F)F)cc2)c1 (stereo partly specified),"inconclusive [inhibitor, partial curve, poor fit]",–
C=C(C)Cn1c(SCC(=O)Nc2cccc(Cl)c2)nc2sc3c(c2c1=O)CCCC3,active: 14.6 µM,–
CCc1ccc(C(=O)/C=C/c2cnn(C)c2C)s1,–,inactive: -23.5%
COc1ccc(NC(=O)COc2ccc(N(C)S(=O)(=O)c3ccc(C)cc3)cc2)cc1,"inconclusive [inhibitor, partial curve, poor fit]",–
O=C(Cn1cc(C(F)(F)F)ccc1=O)OCC(=O)c1ccc[nH]1,"inconclusive [inhibitor, partial curve, poor fit]",–
CN(Cc1ccc(Cl)cc1)C(=O)c1[nH]c(C(F)(F)F)nc1-c1ccccc1,–,inactive: -20.7%
O=C1NC[C@H](Cc2ccc(O)cc2)N(C[C@@H]2CCCN2C[C@H](Cc2ccc(O)cc2)N2C[C@H](Cc3ccccc3)N(CC3CCCCCC3)C(=O)C2=O)C1=O,"inconclusive [inhibitor, single point]",–
CCS(=O)c1ccccc1C(=O)OCC(=O)Nc1cccc(S(=O)(=O)N2CCCCC2)c1 (stereo unspecified),active: 5.8 µM,–
O=C(NCCC1=CCCCC1)c1ccc2c(c1)N(Cc1ccc(Cl)cc1)C(=O)c1ccccc1S2=O (stereo unspecified),"inconclusive [inhibitor, single point]",–
Cc1ccc(C)c(NC(=O)CSc2ccc(-c3ccco3)nn2)c1,"inconclusive [inhibitor, partial curve, poor fit]",–

Structure (SMILES),Potency,"activity change, negative = growth inhibition"
Cc1ccc(OCC(=O)c2cc(C)n(CC(F)(F)F)c2C)c([N+](=O)[O-])n1,"inconclusive [inhibitor, single point]",–
Cc1cccc(OCC(=O)NNC(=O)Cn2c(=O)cnc3ccccc32)c1,"inconclusive [inhibitor, single point]",–
Cn1nc(-c2ccc(Cl)cc2)c2cc(C(=O)N3CCOCC3)sc21,active: 20.6 µM,–
CC(=O)C1=C(O)C(=O)N(Cc2ccccc2)C1c1ccc(Cl)cc1 (stereo unspecified),–,inactive: -8.56%
CC1CCc2nc(NC(=O)c3ccc(N4C(=O)CCC4=O)cc3)sc2C1 (stereo unspecified),"inconclusive [inhibitor, single point]",–
CCOc1ccccc1NC(=O)c1cccc(NC2=NC3CS(=O)(=O)CC3S2)c1 (stereo unspecified),"inconclusive [inhibitor, partial curve, poor fit]",–
CC1=C(c2ccc(C)c(C)c2)S(=O)(=O)N=C1N1CCC(C(=O)NCc2ccc(Cl)cc2)CC1,"inconclusive [inhibitor, single point]",–
COc1ccc(NC(=S)/N=C(\N)Nc2nc(C)c3ccccc3n2)cc1,"inconclusive [inhibitor, single point]",–
COc1ccccc1N1CCN(c2ccc(S(=O)(=O)N3CCN(C)CC3)cn2)CC1,"inconclusive [inhibitor, single point]",–
COc1ccc(-c2cc(C(F)(F)F)nc(NC3CCCC3)n2)cc1OC,"inconclusive [inhibitor, partial curve, poor fit]",–
CCOC(=O)C1=C(CC)Nc2ccccc2N/C1=N\S(=O)(=O)c1cccc(C(C)=O)c1,"inconclusive [inhibitor, single point]",–
C[C@@H](NC(=O)c1[nH]cnc1C(=O)Nc1ccc(Cl)cc1)c1ccccc1,"inconclusive [inhibitor, single point]",–
COc1ccc(Cl)cc1S(=O)(=O)N1CCCC(C(=O)NCCc2ccccc2)C1 (stereo unspecified),"inconclusive [inhibitor, single point]",–
COc1ccccc1NC(=O)CN(C)S(=O)(=O)c1ccc(F)cc1,–,inactive: -6.75%
C[C@@H]1CN([C@H](C)CO)C(=O)CCCn2cc(nn2)CO[C@H]1CN(C)C(=O)c1ccc2ccn(C)c2c1,–,inactive: 32.2%
Nc1cc(OCC(F)(F)F)cc(OCC(F)(F)F)c1,–,inactive: -1.53%
COc1ccc(-n2c(=O)c3c(c4cc(OC)ccc4n3C)n(C)c2=O)cc1,–,inactive: 0.636%
COc1ccc(-c2cc(C(=O)NCC(c3ccco3)N(C)C)c3ccccc3n2)cc1OC (stereo unspecified),active: 14.6 µM,–
O=C(c1cc(Br)c(Br)s1)N1CCc2ccccc2C1,"inconclusive [inhibitor, single point]",–
CCOC(=O)C1=C(C)NC(=S)NC1c1cccc(O)c1 (stereo unspecified),"inconclusive [inhibitor, partial curve, poor fit]",–
CS(=O)(=O)c1ccc2nnn(OCC(=O)Nc3cccc(C#N)c3)c2c1,"inconclusive [inhibitor, single point]",–
O=C(Nc1ccc(S(=O)(=O)N2CCC(C(=O)NC3CCCCC3)CC2)cc1)c1ccco1,"inconclusive [inhibitor, single point]",–
